# The other results are listed elsewhere or left out.
# How the values were obtained:
# Assay in all cases: glycan array binding signal (z-score within array); higher = stronger binding
# Conditions in all cases: glycan notation: IUPAC condensed, linker removed
# Gal(b1-3)GalNAc = target: Gal(b1-3)GalNAc
# In short: (§1)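 Arrays were curated from the Consortium for Functional Glycomics database, 3228 in total, and kept only where the protein sequence was available. Binding is expressed as a within-array Z-score. This score was averaged across arrays of the same protein sequence at different concentrations or buffers and across linkers, and negative values can be read as non-binding.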
# [1] = target: Gal(b1-3)GalNAc(a1-3)[Fuc(a1-2)]Gal(b1-4)Glc
# In short: as §1
# [2] = target: Gal(b1-3)GalNAc(a1-3)[Fuc(a1-2)]Gal(b1-4)GlcNAc
# In short: as §1
# [3] = target: Gal(b1-3)GalNAc(b1-3)Gal(a1-4)Gal(b1-4)Glc
# In short: as §1
# [4] = target: Gal(b1-3)GalNAc(b1-4)Gal(b1-4)Glc
# In short: as §1
# [5] = target: Gal(b1-3)GalNAc(b1-4)[Neu5Ac(a2-3)]Gal(b1-4)Glc
# In short: as §1
# Gal(b1-3)GlcNAc = target: Gal(b1-3)GlcNAc
# In short: as §1
# [6] = target: Gal(b1-3)GlcNAc(a1-6)Gal(b1-4)GlcNAc
# In short: as §1
# [7] = target: Gal(b1-3)GlcNAc(b1-2)Man(a1-3)[Gal(b1-3)GlcNAc(b1-2)Man(a1-6)]Man(b1-4)GlcNAc(b1-4)GlcNAc
# In short: as §1
# [8] = target: Gal(b1-3)GlcNAc(b1-2)Man(a1-3)[Gal(b1-3)GlcNAc(b1-2)Man(a1-6)]Man(b1-4)GlcNAc(b1-4)[Fuc(a1-6)]GlcNAc
# In short: as §1
# [9] = target: Gal(b1-3)GlcNAc(b1-2)[Gal(b1-3)GlcNAc(b1-6)]Man(a1-6)[Gal(b1-3)GlcNAc(b1-2)Man(a1-3)]Man(b1-4)GlcNAc(b1-4)GlcNAc
# In short: as §1
# [10] = target: Gal(b1-3)GlcNAc(b1-3)Gal(b1-3)GlcNAc
# In short: as §1
# [11] = target: Gal(b1-3)GlcNAc(b1-3)Gal(b1-4)Glc
# In short: as §1
# [12] = target: Gal(b1-3)GlcNAc(b1-3)Gal(b1-4)GlcNAc
# In short: as §1
# [13] = target: Gal(b1-3)GlcNAc(b1-3)Gal(b1-4)GlcNAc(b1-6)[Gal(b1-3)GlcNAc(b1-3)]Gal(b1-4)Glc
# In short: as §1
# [14] = target: Gal(b1-3)GlcNAc(b1-3)Gal(b1-4)[Fuc(a1-3)]GlcNAc(b1-6)[Gal(b1-3)GlcNAc(b1-3)]Gal(b1-4)Glc
# In short: as §1
# [15] = target: Gal(b1-3)GlcNAc(b1-3)GalNAc
# In short: as §1
# [16] = target: Gal(b1-3)GlcNAc(b1-6)Gal(b1-4)GlcNAc
# In short: as §1
# [17] = target: Gal(b1-3)[Fuc(a1-4)]GlcNAc
# In short: as §1
# [18] = target: Gal(b1-3)[Fuc(a1-4)]GlcNAc(b1-2)Man(a1-3)[Gal(b1-3)[Fuc(a1-4)]GlcNAc(b1-2)Man(a1-6)]Man(b1-4)GlcNAc(b1-4)GlcNAc
# In short: as §1
# [19] = target: Gal(b1-3)[Fuc(a1-4)]GlcNAc(b1-2)Man(a1-3)[Gal(b1-3)[Fuc(a1-4)]GlcNAc(b1-2)Man(a1-6)]Man(b1-4)GlcNAc(b1-4)[Fuc(a1-6)]GlcNAc
# In short: as §1
# [20] = target: Gal(b1-3)[Fuc(a1-4)]GlcNAc(b1-3)Gal(b1-3)[Fuc(a1-4)]GlcNAc
# In short: as §1
# [21] = target: Gal(b1-3)[Fuc(a1-4)]GlcNAc(b1-3)Gal(b1-4)GlcNAc
# In short: as §1
# [22] = target: Gal(b1-3)[Fuc(a1-4)]GlcNAc(b1-3)Gal(b1-4)[Fuc(a1-3)]GlcNAc
# In short: as §1
# [23] = target: Gal(b1-3)[GlcNAc(b1-6)]GalNAc
# In short: as §1
# [24] = target: Gal(b1-3)[Neu5Ac(a2-6)]GalNAc
# In short: as §1
# [25] = target: Gal(b1-3)[Neu5Ac(a2-6)]GlcNAc(b1-6)Gal(b1-4)Glc
# In short: as §1
# [26] = target: Gal(b1-3)[Neu5Ac(b2-6)]GalNAc
# In short: as §1
# Gal(b1-4)Gal = target: Gal(b1-4)Gal
# In short: as §1
# [27] = target: Gal(b1-4)GalNAc(a1-3)[Fuc(a1-2)]Gal(b1-4)GlcNAc
# In short: as §1
# [28] = target: Gal(b1-4)GalNAc(b1-3)[Fuc(a1-2)]Gal(b1-4)GlcNAc
# In short: as §1
# Gal(b1-4)Glc = target: Gal(b1-4)Glc
# In short: as §1
# Gal(b1-4)Glc6S = target: Gal(b1-4)Glc6S
# In short: as §1
# Gal(b1-4)GlcNAc = target: Gal(b1-4)GlcNAc
# In short: as §1
# [29] = target: Gal(b1-4)GlcNAc(a1-6)Gal(b1-4)GlcNAc
# In short: as §1
# [30] = target: Gal(b1-4)GlcNAc(b1-2)Man(a1-3)Man(b1-4)GlcNAc(b1-4)GlcNAc
# In short: as §1
# [31] = target: Gal(b1-4)GlcNAc(b1-2)Man(a1-3)[Gal(b1-4)GlcNAc(b1-2)Man(a1-6)]Man(b1-4)GlcNAc(b1-4)GlcNAc
# In short: as §1
# [32] = target: Gal(b1-4)GlcNAc(b1-2)Man(a1-3)[Gal(b1-4)GlcNAc(b1-2)Man(a1-6)]Man(b1-4)GlcNAc(b1-4)[Fuc(a1-6)]GlcNAc
# In short: as §1
# [33] = target: Gal(b1-4)GlcNAc(b1-2)Man(a1-3)[Gal(b1-4)GlcNAc(b1-2)][GlcNAc(b1-4)]Man(b1-4)GlcNAc(b1-4)GlcNAc
# In short: as §1
# [34] = target: Gal(b1-4)GlcNAc(b1-2)Man(a1-3)[GlcNAc(b1-2)Man(a1-6)]Man(b1-4)GlcNAc(b1-4)GlcNAc
# In short: as §1
# [35] = target: Gal(b1-4)GlcNAc(b1-2)Man(a1-3)[Man(a1-6)]Man(b1-4)GlcNAc(b1-4)GlcNAc
# In short: as §1
# [36] = target: Gal(b1-4)GlcNAc(b1-2)Man(a1-6)Man(b1-4)GlcNAc(b1-4)GlcNAc
# In short: as §1
# [37] = target: Gal(b1-4)GlcNAc(b1-2)Man(a1-6)[GlcNAc(b1-2)Man(a1-3)]Man(b1-4)GlcNAc(b1-4)GlcNAc
# In short: as §1
# [38] = target: Gal(b1-4)GlcNAc(b1-2)Man(a1-6)[Man(a1-3)]Man(b1-4)GlcNAc(b1-4)GlcNAc
# In short: as §1
# [39] = target: Gal(b1-4)GlcNAc(b1-2)[Gal(b1-4)GlcNAc(b1-4)]Man(a1-3)[Gal(b1-4)GlcNAc(b1-2)Man(a1-6)]Man(b1-4)GlcNAc(b1-4)GlcNAc
# In short: as §1
binder,measurement,setting,value
Gal 4 (Canis lupus) (protein) MAYVPAPGYQPTYNPTLPYNKPIPGGLSVGMSVYIQGITSEHMRRFCVNFVAGAHPGSDIAFHFNPRFDGWDKVVFNSHLGGKWGSEEKKRSMPFRKGTHFELVFMVLAEHYKVVVNGNPFYEFGHRLPLQLVTHLQVEGDVELQSINFIGGTQPLGQGPGHTQQQPSSLPTMEGPPVFNPPVPFRKRLQGGLTVRRTVIIKGFVPFTSKSFVINFMVESSGDLALHINPRLTEGLVVRNSCLNGSWGSEDRKLSYNPFIPGQFFDLSIRCGMDRFKVYANGQHLFDFSHRLLALQNVDMLEINGDVTLSYIQV,glycan array binding signal (z-score),Gal(b1-3)GalNAc,-0.15
same,glycan array binding signal (z-score),[1],11.1
same,glycan array binding signal (z-score),[2],2.63
same,glycan array binding signal (z-score),[3],-0.148
same,glycan array binding signal (z-score),[4],-0.134
same,glycan array binding signal (z-score),[5],-0.139
same,glycan array binding signal (z-score),Gal(b1-3)GlcNAc,-0.138
same,glycan array binding signal (z-score),[6],-0.137
same,glycan array binding signal (z-score),[7],-0.112
same,glycan array binding signal (z-score),[8],-0.104
same,glycan array binding signal (z-score),[9],-0.106
same,glycan array binding signal (z-score),[10],-0.143
same,glycan array binding signal (z-score),[11],-0.127
same,glycan array binding signal (z-score),[12],-0.154
same,glycan array binding signal (z-score),[13],-0.146
same,glycan array binding signal (z-score),[14],-0.122
same,glycan array binding signal (z-score),[15],-0.146
same,glycan array binding signal (z-score),[16],-0.141
same,glycan array binding signal (z-score),[17],-0.152
same,glycan array binding signal (z-score),[18],-0.075
same,glycan array binding signal (z-score),[19],-0.122
same,glycan array binding signal (z-score),[20],-0.132
same,glycan array binding signal (z-score),[21],-0.155
same,glycan array binding signal (z-score),[22],-0.153
same,glycan array binding signal (z-score),[23],-0.152
same,glycan array binding signal (z-score),[24],-0.151
same,glycan array binding signal (z-score),[25],-0.147
same,glycan array binding signal (z-score),[26],-0.154
same,glycan array binding signal (z-score),Gal(b1-4)Gal,-0.151
same,glycan array binding signal (z-score),[27],3.3
same,glycan array binding signal (z-score),[28],-0.145
same,glycan array binding signal (z-score),Gal(b1-4)Glc,-0.155
same,glycan array binding signal (z-score),Gal(b1-4)Glc6S,-0.121
same,glycan array binding signal (z-score),Gal(b1-4)GlcNAc,-0.153
same,glycan array binding signal (z-score),[29],-0.157
same,glycan array binding signal (z-score),[30],-0.153
same,glycan array binding signal (z-score),[31],-0.139
same,glycan array binding signal (z-score),[32],-0.115
same,glycan array binding signal (z-score),[33],-0.147
same,glycan array binding signal (z-score),[34],-0.154
same,glycan array binding signal (z-score),[35],-0.15
same,glycan array binding signal (z-score),[36],-0.156
same,glycan array binding signal (z-score),[37],-0.149
same,glycan array binding signal (z-score),[38],-0.142
same,glycan array binding signal (z-score),[39],-0.148

# From the supplement of paper PMC8728848
